Source: the supplement of paper PMC11417369
± gives the standard deviation of the averaged measurements. The list shows a part of the results.

Each sequence was assayed on PfAP2-G AP2 domain (GST-tagged) (assay: gcPBM binding intensity (ln(normalized median fluorescence intensity)); higher = stronger DNA binding).
Outline: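 DNA-binding domains from P. falciparum, fused to GST and produced in E. coli, were put on an Agilent 4 × 180k double-stranded probe array for 1 h in 1× PBS holding 1% milk, 0.2 mg/ml BSA, 0.5% salmon testes DNA and 0.03% Triton X-100. Probes were primer-extended, 36 bp long and drawn from intergenic genomic regions, with negative controls included. After Alexa488 anti-GST antibody detection and a 488 nm scan, binding intensity was set as the highest Masliner-normalised natural-log median intensity across replicate spots of either probe orientation.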

Row | Sequence | gcPBM binding intensity (ln)
1 | AAATTTATAAAGAACACACACATATAAATATAAATA [CACACA_site6174] | 10.05 ± 0.071
2 | TTATATATTTATATATGTACACATTTTACCATTTTT [XGTACX_site2142] | 11.6 ± 1.1
3 | ATTTATTTCTTGTTAGTGCACTTTCTTTGGTAAAAT | 10.5 ± 0.36
4 | TTAAAATGTTGTAACGTGCACATTTTGTGGAAATCA [GTGCAC_site9559] | 10.4 ± 0.22
5 | ATACAAACAATTATTTGTACATAAAATTTTTTTTTT [XGTACX_site90] | 10.9 ± 0.47
6 | ATGAATCTTTTAAAAAGTACATGTGAAAAAAATAAA [XGTACX_site49] | 11.3 ± 0.87
7 | TTATAATTGTAAGGTAGTACATATAAATCAAATAAT [XGTACX_site7190] | 11.5 ± 0.94
8 | TATACAGATGGACACACACACATATATATATATATA [CACACA_site5272] | 11.1 ± 0.67
9 | GGTGGTAAAAAACCTGCATGTCGAAATATTAAATAC [TGCATGCA_site33] | 10.3 ± 0.18
10 | AAAAAAAAAAAAAAGAGTACTCATATAAAAATATAA [XGTACX_site6551] | 11.5 ± 0.92
11 | TACAGAATTGTATATAGTACATAAAACAATATATAT [XGTACX_site7275] | 10.9 ± 0.5
12 | GTATATGAATAATATTTTATGGTAATTTTTTTTTTT [XGTACX_negctrl_site512] | 10 ± 0.2
13 | AAGAAGAAACAAAACACACACAGTCTTCTTTTCTAT [CACACA_site3088] | 9.82 ± 0.16
14 | AAACTTGACGAACACACACACACATATATAAAAAAA [CACACA_site6494] | 10.3 ± 0.37
15 | AATGAAAAGTAAAATACACACACATAATATAATTTA [CACACA_site8608] | 9.93 ± 0.12
16 | TGTGTAAAAATCATGGGTACACATTTTGATACCAAT [XGTACX_site1779] | 11.6 ± 0.95
17 | ATAAATTAAAAACACACACACATCTGGATACCCCTA [CACACA_site5780] | 11.1 ± 0.71
18 | TTTTTATAAAAAATTTACACTATATGACAGAAGTAA [XGTACX_negctrl_site481] | 10 ± 0.16
19 | ATATTTTTATATGAGGTGCATATAATGACAATTAAG | 10.3 ± 0.32

Row | Sequence | gcPBM binding intensity (ln)
20 | TCTTTTTATGTTCTAGAGCATTTTATTATTTAACAT [CACACA_negctrl_site1699] | 10.05 ± 0.092
21 | ATACTATTTAAATGGGTGCTAAAAATAACAAAAATT | 10.3 ± 0.26
22 | ATATATATACACAATAGTACGTGTAATATTATTATT [XGTACX_site2151] | 11 ± 0.69
23 | TATACCTATAAATACACACACATATATAAATAAATA [CACACA_site6730] | 10.1 ± 0.17
24 | AATCGAAATCGTGCACGGACACATGCAGTAGCCGAG [XGTACX_site6001] | 10.9 ± 0.45
25 | TTCCCCCCCAGACACACACACACATACATACCACAT [CACACA_site2305] | 11.8 ± 0.84
26 | GAAGTTAGTGTTGACTGTACATATATATGTATATAT [XGTACX_site7243] | 11 ± 0.64
27 | AAACGTACATAATACACACACATGTATACATATAAA [CACACA_site2048] | 11.4 ± 0.97
28 | ATTTCTTTTTTTTTTTTTTTTAATGTAAAACATTTT [CACACA_negctrl_site1462] | 9.66 ± 0.014
29 | TACGTTTTATGACACACACACAAAAAAAAAAAAAAA [CACACA_site7764] | 10.3 ± 0.79
30 | GATGTATAAAATAATACATGCATGTCCTACATATAT [TGCATGCA_site155] | 10.8 ± 0.51
31 | TTTCTTTTTCGATATACACACTGTATGTGTCTAAAA [CACACA_site6054] | 10.1 ± 0.23
32 | TATATTTATAAATGAACACACACGCAATTTGAATCG [CACACA_site3370] | 10.34 ± 0.021
33 | CTGTATTTATTTTTCTGTACCAAATCACCCCTTGTA [XGTACX_site395] | 11 ± 0.54
34 | CGAAGGATAAACATACGTACATATATGTGTATAATA [XGTACX_site779] | 11.4 ± 0.67
35 | TTTCCGGTAATATGGAAATATATGTGGGTTTTTTTT [CACACA_negctrl_site1536] | 9.915 ± 0.049
36 | ACTATTTTAAAAATATGTACATACGTTGTAATTTAA [XGTACX_site7999] | 11.4 ± 0.83
37 | CTTTGGTTATAACACACATGCACACGTAAATAAATA [TGCATGCA_site976] | 10.5 ± 0.25
38 | TTGTATTAAAATCAAGTGCATATAATTTAAGTTCAT [GTGCAC_site9495] | 10 ± 0.16

Row | Sequence | gcPBM binding intensity (ln)
39 | TTTTGTTTTTAGTTTATACACACCATATTAATATAA [CACACA_site3102] | 10.2 ± 0.13
40 | CATCACCTTTTTAAATGTACGCATAATACCAAAAAA [XGTACX_site1587] | 11.4 ± 0.89
41 | GTAGGTTACAAAATGTGAGAGAAGCAAATATAGAAA [CACACA_negctrl_site1819] | 10.18 ± 0.028
42 | TAGAATAAATTAATTACACACGGAATTATATATATA [CACACA_site1616] | 9.87 ± 0.22
43 | ATATAAGTACCTATAACACACATATATTATAAGTAT [CACACA_site7281] | 11 ± 0.67
44 | TATCATATATTATAGCGTACTTATTTATTTATTTAT [XGTACX_site1676] | 11.2 ± 0.67
45 | TATAATAGTTCATAGGTGCAATATAATAAATTTATA [GTGCAC_site9573] | 10.1 ± 0.27
46 | AAAAAAAAAAAAAAAAGTACATGAAAAAAAGAAGAA [XGTACX_site8384] | 11.6 ± 0.95
47 | TTTTTTTTTTAGTATGAACACACATATATATTATAA [CACACA_site8957] | 10.1 ± 0.29
48 | ATAAAACTTATTTAACGTACATATTTTATATACCTT [XGTACX_site5353] | 11.2 ± 0.64
49 | TATAAAATAAATAACAAAAAAAATAAAATAAAAATA [TGCATGCA_negctrl_site297] | 9.705 ± 0.064
50 | AAAAAATACATCAAAAGAAACATATATATATATATA [GTGCAC_negctrl_site719] | 9.93 ± 0.45
51 | TATAGCAAAATATTCACACAAACTATTAATAAAAGT [CACACA_site5795] | 10.06 ± 0.014
52 | AATGGTTATAATATATGTACATATAAATATACTGAA [XGTACX_site8533] | 11.3 ± 0.66
53 | GTTTATATATTATAAAGTACATATGAATTTAATAAT [XGTACX_site3601] | 11.2 ± 0.83
54 | ATAATATAATAATATTGTACATGGTCAAATATGAAA [XGTACX_site8390] | 11 ± 0.46
55 | GATCATTCTAAATATAAACACACATAAATATATACA [CACACA_site9108] | 9.875 ± 0.035
56 | TATATTCCCATATAACGTACATATGAGACACCAACT [XGTACX_site8099] | 11.3 ± 0.64
57 | CTTAAAAAAATATATTGTACATATATATATACAACT [XGTACX_site1281] | 11.1 ± 0.54
